The campaign covered roughly 3,200 compounds. About 110 (3.4%) showed an effect of 50% or more. Some of the results follow.
system: T1, V. cholerae SAD30; design: species or system S. aureus MSSA476 (TSB) or V. cholerae SAD30 (LB); 384-well bacterial growth screen at 25 uM, OD600 relative to DMSO control; details: relative growth, OD600, LB; 25 µM; inhibitor
T1 construct: SAD30

Structure (SMILES)	% of control remaining [%]
N#CC(=Cc1cccs1)C(=O)Nc1ccc(F)cc1 [8-F10, 2-cyano-N-(4-fluorophenyl)-3-(thiophen-2-yl)prop-2-enamide]	70.4963
Cc1ccc(NC(=O)N2CCN(C(=O)C(C)Cl)CC2)cc1Cl (stereo not shown) [7-A21, N-(3-chloro-4-methylphenyl)-4-(2-chloropropanoyl)piperazine-1-carboxamide]	80.0925
N#CC(=Cc1ccc2c(c1)OCO2)C(=O)NCc1ccco1 [9-A15, 3-(1,3-dioxaindan-5-yl)-2-cyano-N-[(furan-2-yl)methyl]prop-2-enamide]	87.2196
C=CC(=O)NCc1ccccc1CN1C(=O)NC2(CCCCC2)C1=O [2-O11, N-{[2-({2,4-dioxo-1,3-diazaspiro[4.5]decan-3-yl}methyl)phenyl]methyl}prop-2-enamide]	88.0344
O=C(CCl)NCCc1ccc2c(c1)OCCO2 [4-N11, 2-chloro-N-[2-(2,3-dihydro-1,4-benzodioxin-6-yl)ethyl]acetamide]	104.033
CC(Cl)C(=O)NC(Cn1cncn1)c1ccccc1 (stereo not shown) [7-M09, 2-chloro-N-[1-phenyl-2-(1H-1,2,4-triazol-1-yl)ethyl]propanamide]	80.7533
Cc1ccc(NC(=O)C(C#N)=Cc2cccs2)c(C)c1 [8-D15, 2-cyano-N-(2,4-dimethylphenyl)-3-(thiophen-2-yl)prop-2-enamide]	71.312
C=CC(=O)NC(C)c1cnc(C(F)(F)F)s1 (stereo not shown) [2-A05, N-{1-[2-(trifluoromethyl)-1,3-thiazol-5-yl]ethyl}prop-2-enamide]	96.9893
C=CC(=O)Nc1ccnn1Cc1cccc(Cl)c1 [1-N14, N-{1-[(3-chlorophenyl)methyl]-1H-pyrazol-5-yl}prop-2-enamide]	86.3592
O=C(CCl)NCC12CCCCC1C2(F)F (stereo not shown) [5-C18, 2-chloro-N-({7,7-difluorobicyclo[4.1.0]heptan-1-yl}methyl)acetamide]	99.359
CC(Cl)C(=O)N1CCCC1c1cccc2c1OCCO2 (stereo not shown) [7-L11, 2-chloro-1-[2-(2,3-dihydro-1,4-benzodioxin-5-yl)pyrrolidin-1-yl]propan-1-one]	76.7884
CC1CN(Cc2ccccc2)CC(C)N(C(=O)C(C)Cl)C1 (stereo not shown) [5-B21, 1-(4-benzyl-2,6-dimethyl-1,4-diazepan-1-yl)-2-chloropropan-1-one]	71.7873
O=C(CCl)c1cc(Cl)ccc1Cl [10-E16, 2-chloro-1-(2,5-dichlorophenyl)ethan-1-one]	49.5617
CC(Cl)C(=O)N[C@H](C)c1cnnn1C (stereo partly drawn) [6-D13, 2-chloro-N-[(1R)-1-(1-methyl-1H-1,2,3-triazol-5-yl)ethyl]propanamide]	90.0938
CC(Cl)C(=O)NC(Cc1ccccc1)c1ncco1 (stereo not shown) [7-E12, 2-chloro-N-[1-(1,3-oxazol-2-yl)-2-phenylethyl]propanamide]	75.2024
CC(C)N(Cc1ccc(N(C)C)cc1)C(=O)CCl [5-E06, 2-chloro-N-{[4-(dimethylamino)phenyl]methyl}-N-(propan-2-yl)acetamide]	100.2
COc1ccc(C=C(C#N)C(=O)NCc2ccco2)cc1 [8-J12, 2-cyano-N-[(furan-2-yl)methyl]-3-(4-methoxyphenyl)prop-2-enamide]	65.1937
COc1cc(C=C(C#N)C(=O)Nc2cccc3ncccc23)ccc1O [9-F22, 2-cyano-3-(4-hydroxy-3-methoxyphenyl)-N-(quinolin-5-yl)prop-2-enamide]	95.7852
CSc1cccc(-n2c(C)cc(C(=O)CCl)c2C)c1 [10-J16, 2-chloro-1-{2,5-dimethyl-1-[3-(methylsulfanyl)phenyl]-1H-pyrrol-3-yl}ethan-1-one]	105.825
C=CC(=O)N(CC)c1cccc(C)c1 [1-A10, N-ethyl-N-(3-methylphenyl)prop-2-enamide]	85.5007
O=C(CCl)NC(c1ccc(F)cc1)c1cccs1 (stereo not shown) [4-K18, 2-chloro-N-[(4-fluorophenyl)(thiophen-2-yl)methyl]acetamide]	102.998
CCCCNC(=O)C(C#N)=Cc1ccc(F)cc1F [8-H14, N-butyl-2-cyano-3-(2,4-difluorophenyl)prop-2-enamide]	65.1937
C=CC(=O)NC1c2cccc(F)c2CCC1C (stereo not shown) [1-B21, N-(5-fluoro-2-methyl-1,2,3,4-tetrahydronaphthalen-1-yl)prop-2-enamide]	89.8356

Structure (SMILES)	% of control remaining [%]
CCc1cccc(NC(=O)CCl)c1 [4-F04, 2-chloro-N-(3-ethylphenyl)acetamide]	110.589
O=C(CCl)Nc1ccc(Cl)c(C(F)(F)F)c1 [4-I09, 2-chloro-N-[4-chloro-3-(trifluoromethyl)phenyl]acetamide]	86.6077
C=CC(=O)N1CCC(C(=O)NC(C)(c2noc(C)n2)C2CC2)CC1 (stereo not shown) [2-B10, N-[1-cyclopropyl-1-(5-methyl-1,2,4-oxadiazol-3-yl)ethyl]-1-(prop-2-enoyl)piperidine-4-carboxamide]	89.4239
CC(Cl)C(=O)N(C)C1CS(=O)(=O)c2ccc(Cl)cc21 (stereo not shown) [7-M14, 2-chloro-N-(5-chloro-1,1-dioxo-2,3-dihydro-1lambda6-benzothiophen-3-yl)-N-methylpropanamide]	76.6562
C=CC(=O)NCC1CCCCN1S(C)(=O)=O (stereo not shown) [1-D17, N-[(1-methanesulfonylpiperidin-2-yl)methyl]prop-2-enamide]	107.025
C=CC(=O)Nc1c(C)ccc(Cl)c1CO [1-O03, N-[3-chloro-2-(hydroxymethyl)-6-methylphenyl]prop-2-enamide]	100.448
COc1cc(C=C(C#N)C(=O)Nc2ccc(F)cc2)cc(Cl)c1O [8-H07, 3-(3-chloro-4-hydroxy-5-methoxyphenyl)-2-cyano-N-(4-fluorophenyl)prop-2-enamide]	73.7593
C=CC(=O)Nc1cnn(CCN2CCCC2=O)c1 [3-M18, N-{1-[2-(2-oxopyrrolidin-1-yl)ethyl]-1H-pyrazol-4-yl}prop-2-enamide]	97.2064
COc1ccc(-c2nn(-c3ccccc3)cc2C=C(C#N)C(N)=O)cc1 [8-L16, 2-cyano-3-[3-(4-methoxyphenyl)-1-phenyl-1H-pyrazol-4-yl]prop-2-enamide]	71.7199
C=CC(=O)NCc1ccccc1S(=O)(=O)N1CCCC1 [2-L17, N-{[2-(pyrrolidine-1-sulfonyl)phenyl]methyl}prop-2-enamide]	85.564
CCc1cccc2c(C(=O)CCl)c[nH]c12 [10-C12, 2-chloro-1-(7-ethyl-1H-indol-3-yl)ethan-1-one]	24.3133
Cc1cc(C)c(-c2csc(NC(=O)CCl)n2)cc1C [4-G17, 2-chloro-N-[4-(2,4,5-trimethylphenyl)-1,3-thiazol-2-yl]acetamide]	91.7835
N#CC(=Cc1cccc2ccccc12)C(=O)NCc1ccco1 [8-N15, 2-cyano-N-[(furan-2-yl)methyl]-3-(naphthalen-1-yl)prop-2-enamide]	75.3909
C=CC(=O)NCCc1ccc(S(N)(=O)=O)cc1 [2-B13, N-[2-(4-sulfamoylphenyl)ethyl]prop-2-enamide]	91.1223
O=C(CCl)NC1CCCCCC1 [5-H16, 2-chloro-N-cycloheptylacetamide]	96.6691
C=CC(=O)N1CCC(C(=O)Nc2ccc(N)c([N+](=O)[O-])c2)CC1 [3-E20, N-(4-amino-3-nitrophenyl)-1-(prop-2-enoyl)piperidine-4-carboxamide]	94.5598
O=C(CCl)Nc1ccc2c(c1)oc1ccccc12 [6-A13, 2-chloro-N-{8-oxatricyclo[7.4.0.0,2,7]trideca-1(9),2(7),3,5,10,12-hexaen-5-yl}acetamide]	88.8805
Cc1ccc(S(=O)(=O)N2CCSSCC2)c(F)c1 [10-L09, 5-(2-fluoro-4-methylbenzenesulfonyl)-1,2,5-dithiazepane]	81.3559
O=C(CCl)NCC(=O)Nc1ccc(F)c(F)c1 [4-L16, 2-chloro-N-{[(3,4-difluorophenyl)carbamoyl]methyl}acetamide]	105.24
O=C(CCl)NCCc1ccc(Cl)cc1 [4-O12, 2-chloro-N-[2-(4-chlorophenyl)ethyl]acetamide]	96.4417
CC1CCCCC1NC(=O)C(C#N)=CC=Cc1ccccc1[N+](=O)[O-] (stereo not shown) [8-F12, 2-cyano-N-(2-methylcyclohexyl)-5-(2-nitrophenyl)penta-2,4-dienamide]	66.5534
CC(=O)Nc1ccc(C(=O)CCl)cc1 [10-O12, N-[4-(2-chloroacetyl)phenyl]acetamide]	74.4983
CC(Cl)C(=O)N(C)C(C)c1ccccc1N1CCCS1(=O)=O (stereo not shown) [6-D05, 2-chloro-N-{1-[2-(1,1-dioxo-1lambda6,2-thiazolidin-2-yl)phenyl]ethyl}-N-methylpropanamide]	91.1556

Source: PMC11995724, “Antibiotic target discovery by integrated phenotypic and activity-based profiling of electrophilic fragments” (Cell chemical biology, 2025)
